Data: patent publication US12551573B2, “Compositions and methods for the targeting of PCSK9” (Scribe Therapeutics Inc., priority 2022, dated 2026)
Numbering of substitutions follows the chain as printed.

B1: DOMAIN_14147 (protein, listed as Canis lupus)
chain: RPGAVSFADVAVYFSPEEWGCLRPAQRALYRDVMRETYGHLGALGFADAKPVLIAWLERKAEVWTPEAEDPEEGARHPGSG
B2: DOMAIN_14526 (protein, listed as Ailuropoda melanoleuca)
chain: KQGGVTFEDVAVYFSQEEWSLLNEAQRRLYHDVMLENFALISSLGCCCRAEAVETPFEQSISVGVSQAKTPKEPRSSQKTH
B3: DOMAIN_14487 (protein, listed as Ailuropoda melanoleuca)
chain: LQESVTFRDVAVFFSQDEWLRLDSAQRTLYREVMLENYGTLVSLGIPFSTPKVICQLQQGEDPCVVDRELPQDAWPGLKTQ
B4: DOMAIN_14358 (protein, listed as Lynx canadensis)
chain: GPWTLLTFRDVAIEFSQEEWGCLNHSQRELYRDVMLETYGHLLFLGLVSKPDLVILLEQKKELWGVKRKETVGCQFEGHVT
B5: DOMAIN_14794 (protein, listed as Acinonyx jubatus)
chain: YTLESLTLEDVAVDFTQEEWRLLAPAQKDLYWDVMLENFRNLVSVGYVASMPAALSRLERGGQWMTEDETRHWICPEIKKD
B6: DOMAIN_14365 (protein, listed as Desmodus rotundus)
chain: SVTFRDVIVDFTQEEWEQLKPVQKDLYRDVMMENYWNLVSLDLETEGDMNDPDPEKDSWEDRPSVTSSMPAPPRLEGPRGA
B7: DOMAIN_14382 (protein, listed as Phascolarctos cinereus)
chain: SQESVTFQDVAVDFTREEWKRLDSAQRDLYRDVMLENYQNLVSLGLLVFQSDVISQLENGEVPLVPGGEVPRGTRPGSVNQ
B8: DOMAIN_14337 (protein)
chain: QPDLVTFGDVAVDFSQEEWEWLNPAQRSLYRTVMLDNYRSLVSLGVSASKPDVISLLEQGKEPWLVKEEGPRGARPDSSPT
modifications: Muntiacus muntjak
B9: DOMAIN_14153 (protein)
chain: LQDLVTFKDVTVEFNQEEWALLDSSQQKLYRDVMLENYGNLASLGYHVDKPSLISQLEQEDKVMTEEGGILPGTCPDLETV
modifications: Muntiacus muntjak
B10: DOMAIN_14773 (protein, listed as Sapajus apella)
chain: FQESVAFEDVAVYFTQNQWGSLDPAQRALYSEVMLENYANVASLVAFPFPKPALISHLEKGEAPWGPDPWDAEIPSGINQG
B11: DOMAIN_14639 (protein, listed as Macaca mulatta)
chain: KEKLVTFEDVAVYFTQAEWDGLSPAQRTLYRDVMLENYGNVASLGFPLLKPAVISQLEGGGELGGPSPLAAGTGLWGLRTG
B12: DOMAIN_14129 (protein, listed as Lynx canadensis)
chain: LQGLLTFRDVAIEFSQDEWGCLNQSQRELYRDVMLETYGHLLFLGLIVSKPHLVIFLEQKRELWDVKRKKTVRTQKGENTS
B13: DOMAIN_14534 (protein, listed as Lynx canadensis)
chain: KPGAVSFADVAVYFSPEEWGCLRPAQRALYRDVMRETYGHLGALGFRGTKPALISWVEEEADLWGPDARDPEVGECLTAAD
B14: DOMAIN_14295 (protein)
chain: RKRGSLTLEDVAVDFTWEEWQLLAPAQKALYRDVMLENYGNLVFVGYQASKPAALSRLERGEPWPVEDEVHSQLCPEMRKD
modifications: Muntiacus muntjak
B15: DOMAIN_14135 (protein, listed as Bos mutus)
chain: LQVSVSFEDVTVDFSREEWQHLDSAQRRLYQDVMLENYSHLLSLGYEVPKPEVIFKLEQGEEPWALKEKTLHHSCSDDTTL
B16: DOMAIN_14574 (protein, listed as Gorilla sp.)
chain: KPGAVSFADVAVYFSREEWGCLRPAQRALYRDVMRETYGHLGALGVGGSKPALISWVEEKAELWDPAAQDPEVAKCPTEAD
B17: DOMAIN_14219 (protein, listed as Ailuropoda melanoleuca)
chain: QGLVSFKDVAVDFTQEEWQQLDPAQRTLYRDVMLENFSHLVSIGYAVSKPDVISKLEQGEDPWIIKRDIPNWIYPDENQAD
B18: DOMAIN_14576 (protein, listed as Ailuropoda melanoleuca)
chain: PQKSVTFEDVAVYFTQTEWDGLSPAQRALYRDVMLENYGNVASLGFSLLKPAVISQLEGADELEGPSPLVAGTEIGPQGLW
B19: DOMAIN_14551 (protein, listed as Ailuropoda melanoleuca)
chain: TVGSVMFSDVSVDFSQEEWECLDPGQRDLYRDVMLENYSNLLSMGLYIPKPQVISLLEQGKEPWMVGRELTRGLCSDLESM
B20: DOMAIN_14557 (protein, listed as Lynx canadensis)
chain: SKVPVTFGDLAIYFSQEEWEWLSPIQKDLYEDVMLENYQNLVSLGLSFRRPNVITLLEKGRAPWMVEPVRKRRGLDSRSKY
B21: DOMAIN_14338 (protein, listed as Ailuropoda melanoleuca)
chain: QEPVTFEDVAVYFTQNQWAKLDPTQRALYREVMLENYANVASLVAFPFPKPDLVSQLERGEVPWGPDPWEAEVLRGICPGG
B22: DOMAIN_14108 (protein, listed as Canis lupus)
chain: SLESDLFRDVAVVFSQEEWEQLVPTQRDLYRDVMLETYNNLVSLGLAISKPDVISFLEQGKEPWMVEKAATGGLCPVLESR
B23: DOMAIN_14197 (protein)
chain: B22 chain with S1Q, L2A, E3G, V23A, N39S, I48V, M65T, K68G, A69V, E79K
modifications: Muntiacus muntjak
B24: DOMAIN_14532 (protein, listed as Lynx canadensis)
chain: SQGSVTFRDVAIDFSQEEWEWLQPTQRDLYRHVMLENYSHLVSLGLNISKPYVVSLLEQGKEPWLEKRGVRRNLFSEPNRE
B25: DOMAIN_14226 (protein, listed as Lynx canadensis)
chain: SQGLVSFKDVAVDFTQEEWQQLDPAQRTLYRDVMLENFSHVISLGYPVSKPDVISKLEQGEDPWIIKRDVSNWIYTDENQA
B26: DOMAIN_14228 (protein, listed as Lynx canadensis)
chain: AQGLVTFRDVAIEFSQEEWKCLEPAQRNLYRDVTLENFSNLVSLGLSISKPDLISLLEQGREPWMIANDMTGPWCPELESR
B27: DOMAIN_14322 (protein, listed as Desmodus rotundus)
chain: SVAFRDVIVDFTQEEWQQLKPAQKDLYRDVMMENYWNLVSLDLETRPDKKESDPQEDDWEDRPSIAVVAEGPMRTGDQGCI
B28: DOMAIN_14444 (protein)
chain: MMGLVTFEDVAVDFTQEEWQYLNPPQRILYRGVMMETYRNLVFVAGQQATKPDLILKMEVEEPYLAEDKIPIWSCPEEACQ
modifications: Phyllostomus discolor
B29: DOMAIN_14627 (protein, listed as Acinonyx jubatus)
chain: LQGSLSFEDVTVGFSQEEWQRLDPAQRTLYRDVMLENYSHLVAVGCCVPKPDVIFRLEQGQQPWLVEEESLDQSCPEVCRV
B30: DOMAIN_14256 (protein, listed as Lynx canadensis)
chain: GKPGALSFADVAVYFSSEEWGCLRPAQRALYRDVMRETYGHLGALGEARPPALISWMERKKEAWSPEAEDPEDRARHPGYG
B31: DOMAIN_14602 (protein, listed as Gorilla sp.)
chain: RQEPVTFEDVAVYFTQNEWASLDSVQRALYREVMLENYANVASLAFPFITPVLVSQLEQGELPWGLDPWEPMGREALRGIC
B32: DOMAIN_21317 (protein, listed as Pteropus vampyrus)
chain: EQESVSFKDVTIDFSREEWQQLDFAQKSLYRDVMLENYFNLISVGCQVPKPEVIFNLEQVENSCMLHRKISRQSCLDGDIG
B33: DOMAIN_21247 (protein)
chain: LVSFEDVAMDFSREEWQQLDPAQRCLYQDVMLEIYSHLLSVEGALGLKTSQQKIFEKASFHNGKESEVTRGGMWCSISEDL
modifications: Neovison vison
B34: DOMAIN_21336 (protein, listed as Equus caballus)
chain: PKVPVTFDDVAVYFSESEWGRLDKWQKELYKHVMRGNYEMLVSLDYAISKPDILTRMERGEEPCPDGPWGPEEGKEREAAR
B35: DOMAIN_21603 (protein)
chain: SQGLVAFEDVAVYFSLEEWERLDADQRELYQEVMQENYGILVSLGYPIPKPDLIFRLEQGEEPWVPDSPRPEEGDIVTGVY
modifications: Lipotes vexillifer

The molecules below were run on HBEGF locus. Details: high-throughput screen of dXR repression of the HBEGF gene; abundance of each domain in the library before and after diphtheria toxin selection; HEK293T cells.
Assay type: cell-based, human

| Molecule | Log2 (fold change) |
| --- | --- |
| B1 | 3.3683 |
| B2 | 3.2232 |
| B3 | 2.7981 |
| B4 | 2.7094 |
| B5 | 3.4295 |
| B6 | 3.0706 |
| B7 | 4.0523 |
| B8 | 3.2753 |
| B9 | 2.883 |
| B10 | 3.5997 |
| B11 | 2.7046 |
| B12 | 2.8195 |
| B13 | 2.8122 |
| B14 | 3.4018 |
| B15 | 2.426 |
| B16 | 3.3356 |

| Molecule | Log2 (fold change) |
| --- | --- |
| B17 | 2.6653 |
| B18 | 3.2158 |
| B19 | 3.6894 |
| B20 | 2.9876 |
| B21 | 3.1071 |
| B22 | 3.0621 |
| B23 | 2.9589 |
| B24 | 3.2071 |
| B25 | 3.1176 |
| B26 | 3.3445 |
| B27 | 3.3716 |
| B28 | 2.4641 |
| B29 | 2.9501 |
| B30 | 2.4946 |
| B31 | 3.2145 |

Same assay, conditions: high-throughput screen of dXR repression of the HBEGF gene; change in abundance of each domain in the library before and after diphtheria toxin selection

| Molecule | Log2 (fold change) |
| --- | --- |
| B32 | 4.0893 |
| B33 | 2.741 |
| B34 | 2.738 |
| B35 | 2.8535 |
